From the supplement of paper PMC8728848
This is one part of the list.

Key:
Test in all cases: glycan array binding signal (z-score within array); higher = stronger binding
Settings in all cases: glycan notation: IUPAC condensed, linker removed
[1] = target: Gal(b1-3)[Fuc(a1-4)]GlcNAc(b1-3)Gal(b1-4)[Fuc(a1-3)]GlcNAc
How it was run: (§1)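 Glycan array data came from 3228 arrays in the Consortium for Functional Glycomics database, and only arrays with an available protein sequence were kept. Glycan names were put into IUPAC-condensed notation, and columns mapping to the same glycan were averaged. The binding signal is a within-array Z-score, averaged across arrays of one protein sequence run at different concentrations or buffers and across linkers. A negative Z-score can be read as non-binding.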

[2] = target: Gal(b1-3)[GlcNAc(b1-6)]GalNAc
How it was run: as §1

[3] = target: Gal(b1-3)[Neu5Ac(a2-6)]GalNAc
How it was run: as §1

[4] = target: Gal(b1-3)[Neu5Ac(a2-6)]GlcNAc(b1-6)Gal(b1-4)Glc
How it was run: as §1

[5] = target: Gal(b1-3)[Neu5Ac(b2-6)]GalNAc
How it was run: as §1

[6] = target: Gal(b1-4)GalNAc(a1-3)[Fuc(a1-2)]Gal(b1-4)GlcNAc
How it was run: as §1

[7] = target: Gal(b1-4)GalNAc(b1-3)[Fuc(a1-2)]Gal(b1-4)GlcNAc
How it was run: as §1

Gal(b1-4)Glc = target: Gal(b1-4)Glc
How it was run: as §1

Gal(b1-4)Glc6S = target: Gal(b1-4)Glc6S
How it was run: as §1

Gal(b1-4)GlcNAc = target: Gal(b1-4)GlcNAc
How it was run: as §1

[8] = target: Gal(b1-4)GlcNAc(b1-2)Man(a1-3)[Gal(b1-4)GlcNAc(b1-2)Man(a1-6)]Man(b1-4)GlcNAc(b1-4)GlcNAc
How it was run: as §1

[9] = target: Gal(b1-4)GlcNAc(b1-3)Gal(b1-4)Glc
How it was run: as §1

[10] = target: Gal(b1-4)GlcNAc(b1-3)Gal(b1-4)GlcNAc
How it was run: as §1

[11] = target: Gal(b1-4)GlcNAc(b1-3)Gal(b1-4)GlcNAc(b1-3)Gal(b1-4)GlcNAc
How it was run: as §1

[12] = target: Gal(b1-4)GlcNAc(b1-3)Gal(b1-4)[Fuc(a1-3)]GlcNAc(b1-3)Gal(b1-4)[Fuc(a1-3)]GlcNAc
How it was run: as §1

[13] = target: Gal(b1-4)GlcNAc(b1-3)GalNAc
How it was run: as §1

[14] = target: Gal(b1-4)GlcNAc(b1-3)[Gal(b1-4)GlcNAc(b1-6)]GalNAc
How it was run: as §1

[15] = target: Gal(b1-4)GlcNAc(b1-6)Gal(b1-4)GlcNAc(b1-6)GalNAc
How it was run: as §1

[16] = target: Gal(b1-4)GlcNAc(b1-6)GalNAc
How it was run: as §1

[17] = target: Gal(b1-4)GlcNAc(b1-6)[Gal(b1-3)]GalNAc
How it was run: as §1

Gal3S(b1-3)GalNAc = target: Gal3S(b1-3)GalNAc
How it was run: as §1

Gal3S(b1-3)GlcNAc = target: Gal3S(b1-3)GlcNAc
How it was run: as §1

[18] = target: Gal3S(b1-3)[Fuc(a1-4)]GlcNAc
How it was run: as §1

Gal3S(b1-4)Glc = target: Gal3S(b1-4)Glc
How it was run: as §1

Gal3S(b1-4)Glc6S = target: Gal3S(b1-4)Glc6S
How it was run: as §1

Gal3S(b1-4)GlcNAc = target: Gal3S(b1-4)GlcNAc
How it was run: as §1

Gal3S(b1-4)GlcNAc6S = target: Gal3S(b1-4)GlcNAc6S
How it was run: as §1

Gal3S6S(b1-4)GlcNAc = target: Gal3S6S(b1-4)GlcNAc
How it was run: as §1

Gal3S6S(b1-4)GlcNAc6S = target: Gal3S6S(b1-4)GlcNAc6S
How it was run: as §1

Gal4S(b1-4)GlcNAc = target: Gal4S(b1-4)GlcNAc
How it was run: as §1

Gal4S6S(b1-4)GlcNAc = target: Gal4S6S(b1-4)GlcNAc
How it was run: as §1

Gal6S(b1-4)Glc = target: Gal6S(b1-4)Glc
How it was run: as §1

Gal6S(b1-4)Glc6S = target: Gal6S(b1-4)Glc6S
How it was run: as §1

Gal6S(b1-4)GlcNAc = target: Gal6S(b1-4)GlcNAc
How it was run: as §1

GalNAc(a1-3)Gal = target: GalNAc(a1-3)Gal
How it was run: as §1

GalNAc(a1-3)GalNAc = target: GalNAc(a1-3)GalNAc
How it was run: as §1

[19] = target: GalNAc(b1-3)Gal(a1-4)Gal(b1-4)GlcNAc
How it was run: as §1

GalNAc(b1-3)GalNAc = target: GalNAc(b1-3)GalNAc
How it was run: as §1

GalNAc(b1-4)GlcNAc = target: GalNAc(b1-4)GlcNAc
How it was run: as §1

Glc(a1-4)Glc = target: Glc(a1-4)Glc
How it was run: as §1

Glc(a1-6)Glc(a1-6)Glc = target: Glc(a1-6)Glc(a1-6)Glc
How it was run: as §1

Glc(b1-4)Glc = target: Glc(b1-4)Glc
How it was run: as §1

Glc(b1-6)Glc = target: Glc(b1-6)Glc
How it was run: as §1

GlcA(b1-3)Gal = target: GlcA(b1-3)Gal
How it was run: as §1

GlcA(b1-6)Gal = target: GlcA(b1-6)Gal
How it was run: as §1

[20] = target: GlcNAc(a1-3)Gal(b1-4)GlcNAc
How it was run: as §1

[21] = target: GlcNAc(a1-6)Gal(b1-4)GlcNAc
How it was run: as §1

[22] = target: GlcNAc(b1-2)Gal(b1-3)GalNAc
How it was run: as §1

[23] = target: GlcNAc(b1-2)Man(a1-3)[GlcNAc(b1-2)Man(a1-6)]Man(b1-4)GlcNAc(b1-4)GlcNAc
How it was run: as §1

GlcNAc(b1-3)Gal = target: GlcNAc(b1-3)Gal
How it was run: as §1

[24] = target: GlcNAc(b1-3)Gal(b1-3)GalNAc
How it was run: as §1

GlcNAc(b1-3)Gal(b1-4)Glc = target: GlcNAc(b1-3)Gal(b1-4)Glc
How it was run: as §1

[25] = target: GlcNAc(b1-3)Gal(b1-4)GlcNAc
How it was run: as §1

[26] = target: GlcNAc(b1-3)Gal(b1-4)GlcNAc(b1-3)Gal(b1-4)GlcNAc
How it was run: as §1

GlcNAc(b1-3)GalNAc = target: GlcNAc(b1-3)GalNAc
How it was run: as §1

[27] = target: GlcNAc(b1-3)[GlcNAc(b1-6)]Gal(b1-4)GlcNAc
How it was run: as §1

[28] = target: GlcNAc(b1-3)[GlcNAc(b1-6)]GalNAc
How it was run: as §1

[29] = target: GlcNAc(b1-3)[GlcNAc(b1-6)]GlcNAc(b1-4)GlcNAc
How it was run: as §1

[30] = target: GlcNAc(b1-4)Gal(b1-4)GlcNAc
How it was run: as §1

[31] = target: GlcNAc(b1-4)GlcNAc(b1-4)GlcNAc
How it was run: as §1

B1: FaeGab (Escherichia coli) (protein)
chain: WMTGDFNGSVDIGGSITADDYRQKWEWKVGTGLNGFGNVLNDLTNGGTKLTITVTGNKPILLGRTKEAFATPVSGGVDGIPQIAFTDYEGASVKLRNTDGETNKGLAYFVLPMKNAEGTKVGSVKVNASYAGVFGKGGVTSADGELFSLFADGLRAIFYGGLTTTVSGAALTSGSAAAARTELFGSLSRNDILGQIQRVNANITSLVDVAGSYREDMEYTDGTVVSAAYALGIANGQTIEATFNQAVTTSTQWSAPLNVAITYY
glycan array binding signal (z-score) [1]: 1.01 | glycan array binding signal (z-score) [2]: 0.42 | glycan array binding signal (z-score) [3]: 0.197 | glycan array binding signal (z-score) [4]: -0.23 | glycan array binding signal (z-score) [5]: 0.151 | glycan array binding signal (z-score) [6]: -0.256 | glycan array binding signal (z-score) [7]: -0.348 | glycan array binding signal (z-score) (Gal(b1-4)Glc): 0.501 | glycan array binding signal (z-score) (Gal(b1-4)Glc6S): 0.611 | glycan array binding signal (z-score) (Gal(b1-4)GlcNAc): -0.221 | glycan array binding signal (z-score) [8]: -0.442 | glycan array binding signal (z-score) [9]: 0.653 | glycan array binding signal (z-score) [10]: -0.445 | glycan array binding signal (z-score) [11]: -0.211 | glycan array binding signal (z-score) [12]: -0.369 | glycan array binding signal (z-score) [13]: -0.228 | glycan array binding signal (z-score) [14]: -0.424 | glycan array binding signal (z-score) [15]: -0.222 | glycan array binding signal (z-score) [16]: 0.093 | glycan array binding signal (z-score) [17]: 0.017 | glycan array binding signal (z-score) (Gal3S(b1-3)GalNAc): 0.165 | glycan array binding signal (z-score) (Gal3S(b1-3)GlcNAc): -0.012 | glycan array binding signal (z-score) [18]: -0.309 | glycan array binding signal (z-score) (Gal3S(b1-4)Glc): -0.054 | glycan array binding signal (z-score) (Gal3S(b1-4)Glc6S): 0.181 | glycan array binding signal (z-score) (Gal3S(b1-4)GlcNAc): -0.212 | glycan array binding signal (z-score) (Gal3S(b1-4)GlcNAc6S): -0.124 | glycan array binding signal (z-score) (Gal3S6S(b1-4)GlcNAc): -0.35 | glycan array binding signal (z-score) (Gal3S6S(b1-4)GlcNAc6S): -0.119 | glycan array binding signal (z-score) (Gal4S(b1-4)GlcNAc): -0.344 | glycan array binding signal (z-score) (Gal4S6S(b1-4)GlcNAc): 0 | glycan array binding signal (z-score) (Gal6S(b1-4)Glc): -0.008 | glycan array binding signal (z-score) (Gal6S(b1-4)Glc6S): 0.473 | glycan array binding signal (z-score) (Gal6S(b1-4)GlcNAc): -0.201 | glycan array binding signal (z-score) (GalNAc(a1-3)Gal): 0.081 | glycan array binding signal (z-score) (GalNAc(a1-3)GalNAc): 0.048 | glycan array binding signal (z-score) [19]: -0.401 | glycan array binding signal (z-score) (GalNAc(b1-3)GalNAc): 0.344 | glycan array binding signal (z-score) (GalNAc(b1-4)GlcNAc): -0.071 | glycan array binding signal (z-score) (Glc(a1-4)Glc): 8.87 | glycan array binding signal (z-score) (Glc(a1-6)Glc(a1-6)Glc): 10.2 | glycan array binding signal (z-score) (Glc(b1-4)Glc): 4.4 | glycan array binding signal (z-score) (Glc(b1-6)Glc): 0.92 | glycan array binding signal (z-score) (GlcA(b1-3)Gal): 0.833 | glycan array binding signal (z-score) (GlcA(b1-6)Gal): 0.932 | glycan array binding signal (z-score) [20]: 0.193 | glycan array binding signal (z-score) [21]: 0.424 | glycan array binding signal (z-score) [22]: 0.128 | glycan array binding signal (z-score) [23]: 0.323 | glycan array binding signal (z-score) (GlcNAc(b1-3)Gal): 0.318 | glycan array binding signal (z-score) [24]: -0.008 | glycan array binding signal (z-score) (GlcNAc(b1-3)Gal(b1-4)Glc): 0.036 | glycan array binding signal (z-score) [25]: -0.37 | glycan array binding signal (z-score) [26]: -0.334 | glycan array binding signal (z-score) (GlcNAc(b1-3)GalNAc): 0.305 | glycan array binding signal (z-score) [27]: 0.15 | glycan array binding signal (z-score) [28]: 0.839 | glycan array binding signal (z-score) [29]: 0.92 | glycan array binding signal (z-score) [30]: 0.137 | glycan array binding signal (z-score) [31]: 0.132
